# From PubChem BioAssay (NCI)
# Values joined by “and” are separate entries in the source; they are usually repeats but may differ in a detail not shown here. Identical values can stand only once.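 Five concentrations, 48 hours, 96-well plates. GI50: concentration for 50% inhibition of growth. The concentration for full growth arrest is given as TGI.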
# Tested on: NCI-H322M lung
# Assay: growth of human tumour cells (NCI), 48 h
SMILES,TGI,GI50
CCOc1c2ccsc2c(OCC)c2ccsc12,> 100 µM,–
COc1ccc(C(=O)Cn2c(C(=O)c3ccc(OC)cc3)nc3ccccc32)cc1,> 100 µM,> 37.8 µM
O=C1c2ccccc2-c2c1c1ccccc1c(=O)n2CCCNCCCn1c2c(c3ccccc3c1=O)C(=O)c1ccccc1-2,16.9 µM,7.63 µM
CCCCCCCCCOC(=O)c1cnc(Cl)cn1,30.9 µM,–
CCNc1nnc(CSc2nc(-c3ccccc3)c(-c3ccccc3)[nH]2)s1,53.6 µM,–
COc1cc(Nc2cnc3cc(C(F)(F)F)ccc3n2)cc(OC)c1OC,> 100 µM,–
S=CN1CCCCC1,> 100 µM,–
C=C1C(=O)O[C@H]2[C@H]1CC/C(COC(=O)C(=O)c1c[nH]c3ccccc13)=C\CC[C@@]1(C)O[C@@H]21,28.4 µM,14.3 µM
COc1cccc(-c2nn(-c3ccccc3)cc2-c2ccnc(NCCNS(=O)(=O)c3ccc(Cl)cc3)c2)c1,> 100 µM,9.39 µM
CC(C)C(C(=O)O)N(CC1(O)OCC(O)C(O)C1O)N=O (stereo not drawn),> 100 µM,–
Cc1cc2c(c3c1c1ccccc1n3C)C(=O)C=CC2=O,66.4 µM,–
Cc1ccc(S(=O)(=O)N/N=C(\CCN2CCCC2)CC(c2ccccc2)c2c(O)c3ccccc3oc2=O)cc1 (stereo not drawn),> 100 µM,–
COc1cccc(N2C(=O)c3c(c4[nH]c5ccccc5c4c4ccc(C(C)(C)C)cc34)C2=O)c1,> 100 µM,–
CCOC(=O)/C(C#N)=C/c1ccc2c(-c3c(OCC)ccc4cc(/C=C(\C#N)C(=O)OCC)ccc34)c(OCC)ccc2c1,> 100 µM,–
CN(N=O)C(=O)Nc1c[nH]c(=O)[nH]c1=O,> 100 µM,–
CCN(CC)c1ccc(/C=C(\C#N)c2nc(N)nc(N3N=C(C)CC3(C)C)n2)cc1,> 61.3 µM,–
Cc1ccc(Nc2nc(=S)[nH]c3[nH]ncc23)cc1,> 100 µM,–
O=C(Nc1ccc(Cl)c([N+](=O)[O-])c1)Nc1nc2ccccc2s1,12.7 µM,3.59 µM
CCNC(=O)C[C@@H]1N=C(c2ccc(Cl)cc2)c2cc(OC)ccc2-n2c(C)nnc21,> 100 µM,5.47 µM
CCCCCCCCCCCCN1C(C)=CS/C1=C\C=C\c1scc(C)[n+]1CCCCCCCCCCCC,44.2 µM,3.49 µM
CCCC1NC(=O)C(CC(C)C)NC(=O)c2cccc(n2)C(=O)NC(CC(C)C)C(=O)NC(CCC)C(=O)NC(C(=O)OC)CCCCNC1=O (stereo not drawn),> 100 µM,–
C/C(=N\NC(=S)N1CCCCCC1)c1nccnc1C,7.63 µM,–
COc1ccc2c(c1)C(N)CC2=O (stereo not drawn),> 100 µM,–
Cc1ccc(-c2c(C#N)c(-c3ccc(Cl)cc3)c(C#N)c(=O)n2NS(=O)(=O)c2ccccc2)cc1,> 100 µM,–

SMILES,TGI,GI50
CCC1(C)C=Cc2c(cc(OC)c3c(=O)c4ccccc4n(C)c23)O1 (stereo not drawn),> 10 µM,–
COc1ccc(OCC(=O)O)c2c1CCC(C(C)C)C2=O (stereo not drawn),> 100 µM,–
CC(C)=CCC[C@]1(C)CC[C@]2(C)C3CCC(=C(C)C)[C@@H](CCCO)[C@]3(C)CC[C@@]2(C)C1 (stereo partly drawn),> 100 µM,–
COc1c2c(c(OC)c3c1c(=O)c1ccccc1n3C)OCO2,> 100 µM,–
COc1ccc(C(=O)/C=C/c2ccc(O)c(O)c2F)c(OC)c1,17.9 µM and 16.9 µM,4.14 µM
CCCc1c2c([nH]c(=O)c1C)C(=O)c1[nH]c(=O)c(C)c(CCC)c1C2=O,52.7 µM,–
O=c1c(O)c(-c2ccc(O)cc2O)oc2cc(O)cc(O)c12,> 100 µM,–
C=C1C(=O)O[C@@H]2[C@H]3O[C@]3(C)CCC=C(C)CC[C@@H]12,55.3 µM,–
Nc1ccccc1C#CC#Cc1ccccc1N,42.8 µM,21.5 µM
CC(O)C1OC(O)C2OC(C)(C)OC12 (stereo not drawn),> 100 µM,–
Cc1ccc(/C=C2\CN(C)CC3=C2OC(N)=C(C#N)C3c2ccc(C)cc2)cc1 (stereo not drawn),> 68.2 µM,–
CC(=O)OCC1OC(On2ccccc2=S)C(OC(C)=O)C(OC(C)=O)C1OC(C)=O (stereo not drawn),> 100 µM,–
CCN1C(=O)C/C(=C\C(C)=O)Nc2ccccc21,> 100 µM,–
COc1ccc(-c2ccc(C3CC(c4ccc(O)cc4)=NN3)o2)c([N+](=O)[O-])c1 (stereo not drawn),> 100 µM,31.8 µM
O=C1NC(=O)C(C(=O)C(=O)Nc2ccc(Br)cc2)C(=O)N1,> 100 µM,–
CC(C)(C)[OH+][O-].[O-]c1ccc(Cl)cc1C=Nc1ccc(Cl)cc1[O-].[O]=[V],18.2 µM,0.978 µM
O=C(Nc1ccc(S(=O)(=O)Nc2nccs2)cc1)c1cccnc1Nc1cccc(Cl)c1,38.9 µM,9.29 µM
C=C1C(=O)O[C@@H]2C[C@@H]1CC[C@]1(C)O[C@H]1CC[C@@]1(C)O[C@@H]1CC[C@@]2(C)O,> 100 µM,> 100 µM
COc1cc(/C=C(/C)[N+](=O)[O-])ccc1O,8.89 µM and 13.3 µM,4.19 µM and 3.29 µM
CC(C)(C)[Si](C)(C)OCC1CCC(n2cnc3c(NC(=O)c4ccccc4)ncnc32)O1 (stereo not drawn),36.8 µM,–
c1ccc(N=C2c3ccccc3CN2c2ccccc2)cc1,> 100 µM,–
Cc1cc(-c2ccc(C(=O)O)[nH]2)on1,> 100 µM,–
CCOC(=N)CC(=O)Nc1ccc(Cl)cc1,> 100 µM,–
CN(C)/[N+]([O-])=N/Oc1cc(Nc2cccc(C(=O)O)c2)c([N+](=O)[O-])cc1[N+](=O)[O-],70.2 µM,19.7 µM
